Data on 33 compounds can be found in ChEMBL document CHEMBL3046856, “Synthesis and fungicidal activity of novel pimprinine analogues” (2012).

Structures are written as SMILES.

The subject of assay [1] is Phytophthora infestans. In words: Fungicidal activity against Phytophthora infestans infected on compound pre-treated tomato leaf pieces assessed as control of disease or pathogen at 200 ppm measured after 5 to 14 days by leaf-piece assay.
The subject of assay [2] is Fusarium graminearum. In words: Fungicidal activity against Fusarium graminearum grown on compound supplemented artificial media assessed as control of disease or pathogen at 2 ppm measured after 5 to 14 days by artificial media assay.
The test system of assay [3] is Fusarium graminearum. In words: Fungicidal activity against Fusarium graminearum grown on compound supplemented artificial media assessed as control of disease or pathogen at 20 ppm measured after 5 to 14 days by artificial media assay.
The subject of assay [4] is Phytophthora infestans. The assay can be described thus: Fungicidal activity against Phytophthora infestans infected on compound pre-treated tomato leaf pieces assessed as control of disease or pathogen at 60 ppm measured after 5 to 14 days by leaf-piece assay.

Turning to `C=CCn1cc(-c2ocnc2Cl)c2ccccc21`, the Activity in the assay on Phytophthora infestans [1], in the assay with Fusarium graminearum [2], in the assay on Fusarium graminearum [3] and in the assay with Phytophthora infestans [4] was 0% in each case.

Consider `COCC(=O)n1cc(-c2ocnc2Cl)c2ccccc21`, for which the Activity with Phytophthora infestans [1], in the assay on Fusarium graminearum [2], with Fusarium graminearum [3] and in the assay on Phytophthora infestans [4] was 0% throughout.

For `CCS(=O)(=O)n1cc(-c2ocnc2Cl)c2ccccc21`, the Activity with Phytophthora infestans [1], with Fusarium graminearum [2], with Fusarium graminearum [3] and with Phytophthora infestans [4] was 0% throughout.

Take `CC(=O)n1cc(-c2ocnc2Cl)c2ccccc21`: the Activity in the assay on Phytophthora infestans [1], in the assay on Fusarium graminearum [2], in the assay with Fusarium graminearum [3] and with Phytophthora infestans [4] was 0% in each case.

As for `Fc1ccc(Cn2cc(-c3ocnc3Cl)c3ccccc32)c(F)c1`, the Activity is 0% in the assay on Phytophthora infestans [1], 0% in the assay with Fusarium graminearum [2], 0% with Fusarium graminearum [3] and 49% with Phytophthora infestans [4].

For the compound `O=C(CCl)n1cc(-c2ocnc2Br)c2ccccc21`, the Activity with Phytophthora infestans [1] came to 99%; in the assay on Fusarium graminearum [2], 0%; in the assay on Fusarium graminearum [3] it was 99%; in the assay with Phytophthora infestans [4], 0%.

As for `Clc1ncoc1-c1cn(CC2CO2)c2ccccc12` (configuration not stated), the Activity in the assay on Phytophthora infestans [1], in the assay on Fusarium graminearum [2], in the assay with Fusarium graminearum [3] and in the assay with Phytophthora infestans [4] was 0% each time.

Regarding `CCn1cc(-c2ocnc2Br)c2ccccc21`, the Activity is on record as 0% in the assay with Phytophthora infestans [1], 49% in the assay with Fusarium graminearum [2], 0% in the assay on Fusarium graminearum [3] and 0% with Phytophthora infestans [4].

Turning to `O=C(CCl)n1cc(-c2ocnc2Cl)c2ccccc21`, the Activity is listed as 27% in the assay on Phytophthora infestans [1], 0% in the assay with Fusarium graminearum [2], 99% in the assay with Fusarium graminearum [3] and 0% in the assay on Phytophthora infestans [4].

Consider `CCOC(=O)Cn1cc(-c2ocnc2Cl)c2ccccc21`, for which the Activity in the assay on Phytophthora infestans [1] was 49%; with Fusarium graminearum [2] it was 0%; in the assay on Fusarium graminearum [3] it was 0%; with Phytophthora infestans [4] it was 0%.

`CC(Cl)C(=O)n1cc(-c2ocnc2Cl)c2ccccc21` (configuration not stated): the Activity with Phytophthora infestans [1], with Fusarium graminearum [2], with Fusarium graminearum [3] and in the assay on Phytophthora infestans [4] was 0% in each case.

On to `O=C(C(Cl)Cl)n1cc(-c2ocnc2Cl)c2ccccc21`, for which the Activity in the assay with Phytophthora infestans [1] is reported as 0%; with Fusarium graminearum [2], 0%; in the assay with Fusarium graminearum [3], 99%; with Phytophthora infestans [4] it was 0%.

For `C=CCn1cc(-c2ocnc2Br)c2ccccc21`, the Activity is on record as 49% with Phytophthora infestans [1], 0% in the assay with Fusarium graminearum [2], 0% in the assay on Fusarium graminearum [3] and 0% in the assay on Phytophthora infestans [4].

On to `CC(=O)n1cc(-c2ocnc2Br)c2ccccc21`, for which the Activity in the assay on Phytophthora infestans [1], with Fusarium graminearum [2], with Fusarium graminearum [3] and in the assay on Phytophthora infestans [4] was 0% throughout.

Consider `Brc1ncoc1-c1c[nH]c2ccccc12`, for which the Activity in the assay with Phytophthora infestans [1] worked out at 49%; in the assay with Fusarium graminearum [2] it was 0%; in the assay with Fusarium graminearum [3] it was 99%; in the assay on Phytophthora infestans [4], 0%.

Turning to `CCn1cc(-c2ocnc2Cl)c2ccccc21`, the Activity in the assay with Phytophthora infestans [1], in the assay with Fusarium graminearum [2], in the assay on Fusarium graminearum [3] and in the assay on Phytophthora infestans [4] was 0% in each case.

With `CC(Cl)C(=O)n1cc(-c2ocnc2Br)c2ccccc21` (configuration not stated), the Activity in the assay on Phytophthora infestans [1], in the assay on Fusarium graminearum [2], with Fusarium graminearum [3] and in the assay with Phytophthora infestans [4] was 0% throughout.

On to `CCC(=O)n1cc(-c2ocnc2Br)c2ccccc21`, for which the Activity with Phytophthora infestans [1], in the assay on Fusarium graminearum [2], in the assay with Fusarium graminearum [3] and in the assay on Phytophthora infestans [4] was 0% each time.

Turning to `O=C(C(Cl)Cl)n1cc(-c2ocnc2Br)c2ccccc21`, the Activity came to 0% in the assay on Phytophthora infestans [1], 0% in the assay with Fusarium graminearum [2], 99% with Fusarium graminearum [3] and 0% with Phytophthora infestans [4].

In the case of `Cn1cc(-c2ocnc2Cl)c2ccccc21`, the Activity in the assay with Phytophthora infestans [1], with Fusarium graminearum [2], in the assay with Fusarium graminearum [3] and in the assay with Phytophthora infestans [4] was 0% throughout.

As to `O=C(n1cc(-c2ocnc2Cl)c2ccccc21)C(Cl)(Cl)Cl`, the Activity was determined as 0% with Phytophthora infestans [1], 0% in the assay on Fusarium graminearum [2], 99% in the assay with Fusarium graminearum [3] and 0% in the assay on Phytophthora infestans [4].

For `CCC(=O)n1cc(-c2ocnc2Cl)c2ccccc21`, the Activity with Phytophthora infestans [1], in the assay with Fusarium graminearum [2], in the assay with Fusarium graminearum [3] and with Phytophthora infestans [4] was 0% throughout.

Turning to `CCOC(=O)C(=O)n1cc(-c2ocnc2Cl)c2ccccc21`, the Activity is on record as 0% in the assay on Phytophthora infestans [1], 0% with Fusarium graminearum [2], 99% in the assay with Fusarium graminearum [3] and 0% in the assay on Phytophthora infestans [4].

For `ClC(Cl)=CCn1cc(-c2ocnc2Br)c2ccccc21`, the Activity with Phytophthora infestans [1], with Fusarium graminearum [2], in the assay with Fusarium graminearum [3] and in the assay with Phytophthora infestans [4] was 0% in each case.

Regarding `COCC(=O)n1cc(-c2ocnc2Br)c2ccccc21`, the Activity in the assay on Phytophthora infestans [1] was determined as 0%; with Fusarium graminearum [2], 0%; in the assay with Fusarium graminearum [3] it was 99%; in the assay with Phytophthora infestans [4], 0%.

Regarding `Clc1ncoc1-c1cn(CC2CC2)c2ccccc12`, the Activity in the assay on Phytophthora infestans [1] came out at 49%; with Fusarium graminearum [2], 0%; with Fusarium graminearum [3], 0%; in the assay with Phytophthora infestans [4] it was 0%.

For `COC(=O)n1cc(-c2ocnc2Br)c2ccccc21`, the Activity in the assay on Phytophthora infestans [1], in the assay on Fusarium graminearum [2], with Fusarium graminearum [3] and in the assay on Phytophthora infestans [4] was 0% throughout.

On to `COC(=O)n1cc(-c2ocnc2Cl)c2ccccc21`, for which the Activity in the assay with Phytophthora infestans [1], with Fusarium graminearum [2], with Fusarium graminearum [3] and with Phytophthora infestans [4] was 0% each time.

Turning to `Brc1ncoc1-c1cn(CC2CC2)c2ccccc12`, the Activity in the assay on Phytophthora infestans [1] was 27%; in the assay with Fusarium graminearum [2], 0%; in the assay with Fusarium graminearum [3] it was 0%; in the assay with Phytophthora infestans [4], 0%.

For the compound `c1ccc2c(-c3cnco3)c[nH]c2c1`, the Activity in the assay on Phytophthora infestans [1], in the assay with Fusarium graminearum [2], in the assay on Fusarium graminearum [3] and in the assay with Phytophthora infestans [4] was 0% throughout.

Regarding `Clc1ncoc1-c1c[nH]c2ccccc12` [Streptochlorin], the Activity in the assay with Phytophthora infestans [1] is given as 0%; with Fusarium graminearum [2], 0%; in the assay on Fusarium graminearum [3], 99%; in the assay with Phytophthora infestans [4] it was 49%.

With `CCS(=O)(=O)n1cc(-c2ocnc2Br)c2ccccc21`, the Activity in the assay on Phytophthora infestans [1], in the assay on Fusarium graminearum [2], with Fusarium graminearum [3] and with Phytophthora infestans [4] was 0% throughout.

As for `Cn1cc(-c2ocnc2Br)c2ccccc21`, the Activity with Phytophthora infestans [1] amounted to 49%; in the assay on Fusarium graminearum [2], 0%; in the assay with Fusarium graminearum [3], 0%; with Phytophthora infestans [4], 0%.
